{"source": "PubChem BioAssay (NCATS)", "key": {"[1]": {"assay": "OV-KATE Cancer Cell Toxicity qHTS against the NCATS CANVASS Library (AID 1347345); note: % is set by controls: 0 for no effect and ±100 for the full control effect", "conditions": "OV-KATE cells viability, CellTiter-Glo luminescence, 72 h; series mostly up to 38.3 µM", "method_in_brief": "(§1)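 Step one: seed 1000 cells per well. Step two: incubate 4 h. Step three: add test compounds in 11 concentrations. Step four: culture 72 h, then add CellTiter-Glo and record luminescence after 15min.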"}, "[2]": {"assay": "Panc-1005 Cancer Cell Toxicity qHTS against the NCATS CANVASS Library (AID 1347349)", "conditions": "Panc-1005 viability, CellTiter-Glo luminescence, 72 h; series mostly up to 38.3 µM", "method_in_brief": "as §1"}, "[3]": {"assay": "qHTS for ATAD5 Antagonist screened against the NCATS CANVASS Library (AID 1347370)", "conditions": "HEK293T-ATAD5-luc, 5-FUrd stimulated, luminescence, 16 h; series mostly up to 46.1 µM", "method_in_brief": "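HEK293T cells with stably integrated ATAD5-luciferase reporter, 2000/well, 5 h attachment; compounds plus 10 µM 5-fluorouridine, 16 h at 37 °C. Luciferase luminescence read, with CellTiter-Fluor viability read first.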"}, "[4]": {"assay": "qHTS for Activators of p53 Stress Response Pathway screened against the NCATS CANVASS Library (AID 1347388)", "conditions": "p53RE-bla HCT-116, beta-lactamase reporter, 16 h; series mostly up to 46.1 µM", "method_in_brief": "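Beta-lactamase reporter driven by p53 response elements in HCT-116 cells, read as the 460 nm/530 nm emission ratio after CCF4 loading, following 16 h of exposure to an 11-point series. Cell viability was measured in the same wells by CellTiter-Glo luminescence.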"}, "[5]": {"assay": "qHTS for inhibitors of Wild type Zika virus screened against the NCATS CANVASS Library (AID 1347396)", "conditions": "Vero cells, Zika virus CPE, CellTiter-Glo, 72 h; series mostly up to 45.9 µM", "method_in_brief": "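Luminescent CellTiter Glo read-out of virus-induced cytotoxicity, 72 h post-infection, in Vero 766 cells. Compounds were tested at 11 concentrations; uninfected, vehicle-treated wells defined 100% inhibition.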"}, "[6]": {"assay": "SW1088 Cancer Cell Toxicity qHTS against the NCATS CANVASS Library (AID 1347350)", "conditions": "SW1088 viability, CellTiter-Glo luminescence, 72 h; series mostly up to 38.3 µM", "method_in_brief": "as §1"}, "[7]": {"assay": "A2780 Cisplatin Sensitive Ovarian Cancer Cell Toxicity qHTS against the NCATS CANVASS Library (AID 1347353)", "conditions": "A2780 ovarian cancer viability, ATPLite luminescence, 72 h; series mostly up to 46.1 µM", "method_in_brief": "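A2780 cells, 750/well, settled 4 h at 37 °C, then treated with an 11-point compound series for 72 h. Viability was read as ATPLite luminescence after 10 min at room temperature, with bortezomib as control.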"}, "[8]": {"assay": "SDT Cancer Cell Toxicity qHTS against the NCATS CANVASS Library (AID 1347365)", "conditions": "SDT dog glioma viability, ATP luminescence, 72 h; series mostly up to 46.1 µM", "method_in_brief": "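SDT dog glioma cells (500/well) exposed to an 11-point compound series for 72 hr at 37C, 5% CO2. Cytotoxicity read as ATP content by CellTiterGlo luminescence; bortezomib titration as control.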"}, "[9]": {"target": "Nuclear receptor subfamily 1 group I member 3 (Homo sapiens) (UniProt Q14994)", "sequence (Q14994 whole entry, looked up)": "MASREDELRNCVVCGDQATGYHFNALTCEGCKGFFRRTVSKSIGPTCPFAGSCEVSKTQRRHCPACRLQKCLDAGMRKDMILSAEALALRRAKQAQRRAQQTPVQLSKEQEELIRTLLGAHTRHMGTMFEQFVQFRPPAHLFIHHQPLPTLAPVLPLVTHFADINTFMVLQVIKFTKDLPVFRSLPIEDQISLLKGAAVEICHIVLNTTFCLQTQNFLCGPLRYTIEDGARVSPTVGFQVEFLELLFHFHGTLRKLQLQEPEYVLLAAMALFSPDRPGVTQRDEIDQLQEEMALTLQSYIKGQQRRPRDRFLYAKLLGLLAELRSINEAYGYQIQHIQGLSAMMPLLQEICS", "assay": "qHTS for Constitutive Androstane Receptor (CAR) Antagonist screened against the NCATS CANVASS Library (AID 1347372)", "conditions": "HepG2-hCAR-CYP2B6 luciferase, CITCO-stimulated antagonist mode; series mostly up to 46.1 µM", "method_in_brief": "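HepG2-CYP2B6-hCAR double-stable cells plated, 4hr attach; cpd pin-transferred; CITCO 50 nM final; 24hr 37C/5% CO2; CellTiter-Fluor 1hr (fluorescence), then ONE-Glo luminescence.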"}, "[10]": {"assay": "10-beta competent E. coli microbial cell viability qHTS against the NCATS CANVASS Library (AID 1347376)", "conditions": "E. coli 10-beta viability, BacTiter-Glo ATP luminescence, overnight; series mostly up to 46.1 µM", "method_in_brief": "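10-beta competent E. coli (0.2 OD) were exposed overnight at 37C to compounds in an 11-point series. Viability was read as ATP-dependent BacTiter-Glo luminescence after 20 min at room temperature.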"}, "[11]": {"assay": "qHTS for Antimalaria activity screened against the NCATS CANVASS Library (AID 1347380)", "conditions": "P. falciparum Dd2 growth, SYBR Green fluorescence, 72 h; series mostly up to 28.7 µM", "method_in_brief": "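Red blood cells infected with P. falciparum Dd2 (2.5% hematocrit final, 0.3% parasitemia) were exposed to compounds in an 11-point qHTS series for 72 hr at 37C under 5% O2 and 5% CO2. Lysis buffer with SYBR Green was then added for 18 hr, and fluorescence was read at 485/535 nm.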"}, "[12]": {"assay": "qHTS for activators of Nrf2/ARE signaling pathway screened against the NCATS CANVASS Library (AID 1347391)", "conditions": "ARE-bla HepG2, beta-lactamase reporter, 16 h; series mostly up to 46.1 µM", "method_in_brief": "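ARE-bla HepG2 beta-lactamase reporter cells exposed to compounds for 16 h at 37C; CCF4 substrate 2 h, fluorescence at ex 405 nm, em 460/530 nm. Viability by CellTiter-Glo luminescence.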"}, "[13]": {"assay": "qHTS for inhibitors of ER calcium dysfunction: SERCaMP assay screened against the NCATS CANVASS Library (AID 1347393)", "conditions": "SH-SY5Y GLuc-SERCaMP (Gaussia luciferase released on ER calcium loss) secretion, thapsigargin, luminescence; activity change, negative = inhibition: at 76.6 µM (top of the series) unless noted", "method_in_brief": "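Thapsigargin-induced ER calcium depletion drives GLuc-SERCaMP secretion from SH-SY5Y cells; compounds given 16 h beforehand were scored by lowered coelenterazine luminescence after 4 h challenge.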"}, "[14]": {"assay": "UWB1.289 Cancer Cell Toxicity qHTS against the NCATS CANVASS Library (AID 1347347)", "conditions": "UWB1.289 viability, CellTiter-Glo luminescence, 72 h; series mostly up to 38.3 µM", "method_in_brief": "as §1"}, "[15]": {"assay": "UWB1.289-WTBRCA1 Cancer Cell Toxicity qHTS against the NCATS CANVASS Library (AID 1347354)", "conditions": "UWB1.289-WTBRCA1 viability, CellTiter-Glo luminescence, 72 h; series mostly up to 38.3 µM", "method_in_brief": "(§2)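 Cells at 1000/well were given compound 4 h after plating in an 11-point series. Viability was read by CellTiter-Glo luminescence after 72 h at 37 degrees C.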"}, "[16]": {"assay": "HEK-293 Cancer Cell Toxicity qHTS against the NCATS CANVASS Library (AID 1347355)", "conditions": "HEK-293 viability, CellTiter-Glo luminescence, 72 h; series mostly up to 46.1 µM", "method_in_brief": "as §2"}, "[17]": {"assay": "DH5-alpha competent E. coli microbial cell viability qHTS against the NCATS CANVASS Library (AID 1347377)", "conditions": "BacTiter-Glo ATP luminescence, overnight; viability signal change, negative = cytotoxic: at 46.1 µM (top of the series); series mostly up to 46.1 µM", "method_in_brief": "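DH5-alpha E. coli suspension was exposed to an 11-point compound series overnight at 37 °C. Viable cells quantified by ATP luminescence (BacTiter-Glo) after 20 min at room temperature.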"}}, "note": "The shares of active, inactive and inconclusive entries below differ from those in the screen. For part of these data: A potency beside an inconclusive call is a rough fit, not a confirmed value. Active and inactive are the calls of the source. Calls come from the whole dose curve; as a rule, active = well fitted curve in the direction sought with a large enough effect; inconclusive = small, poorly fitted or top-dose-only effect, or another doubt; inactive = no such curve, though single readings can be large; an effect the other way counts as inactive or inconclusive. Starred links: 1 amine or outer side, 2 acyl side, 3 side chain; linkers in the order of their positions; H or OH if unused. Positions of bridges follow the written chain, without caps; N, C: chain ends. Non-standard residues stand in square brackets, D forms with d. Residues, ends and D or L forms follow the SMILES beside them. ξ: configuration not given here. Phe(3R-OH) = O=C([C@@H](N[*:1])[C@H](O[*:3])c1ccccc1)[*:2]; NMeTrp(4-OMe) = CN[C@@H](Cc1c[nH]c2cccc(OC)c12)C(=O)O; ξThr(3R)(O-yl) = C[C@@H](O[*:3])C(N[*:1])C(=O)[*:2]; NMeThr(3ξ) = CN[C@H](C(=O)O)C(C)O; NMeL = CN[C@@H](CC(C)C)C(=O)O; NMeV = CN[C@H](C(=O)O)C(C)C; ξIle = CC[C@H](C)C(N)C(=O)O; ξV = CC(C)C(N)C(=O)O; for activity change, negative = inhibition: % is set by controls: 0 for no effect and ±100 for the full control effect; for activity change, negative = inhibition: nearly all actives have a fitted effect of over 65% in size; for viability signal change, negative = cytotoxic: 0% is about no effect"}
{"smiles": "C1=C2CCCN[C@@H]2[C@@H]2CCN3CCCC[C@@H]3[C@H](C1)C2", "values": [{"measurement": "Potency", "setting": "[1]", "result": "inactive"}, {"measurement": "Potency", "setting": "[2]", "result": "inactive"}, {"measurement": "Potency", "setting": "[3]", "result": "inactive"}, {"measurement": "Potency", "setting": "[4]", "result": "inactive"}, {"measurement": "Potency", "setting": "[5]", "result": "inactive"}]}
{"smiles": "CC[C@H](C)C(NC(=O)[C@@H](NC)C(C)C)C(=O)NC1C(=O)N(C)[C@@H](C(C)O)C(=O)N[C@@H](C(C)C)C(=O)N(C)[C@@H](CC(C)C)C(=O)NC(C(C)C)C(=O)N(C)[C@@H](C(C)C)C(=O)N(C)[C@@H](Cc2c[nH]c3cccc(OC)c23)C(=O)N[C@@H](C(C)C)C(=O)N[C@@H]([C@H](O)c2ccccc2)C(=O)N[C@@H](C(C)C)C(=O)O[C@@H]1C", "note": "(stereo partly drawn) (H-[NMeV][ξIle][ξThr(3R)(O-yl)][NMeThr(3ξ)]V[NMeL][ξV][NMeV][NMeTrp(4-OMe)]V[Phe(3R-OH)]V; ester 3-C)", "values": [{"measurement": "Potency", "setting": "[1]", "result": "inactive"}, {"measurement": "Potency", "setting": "[6]", "result": "inactive"}, {"measurement": "Potency", "setting": "[7]", "result": "inactive"}, {"measurement": "Potency", "setting": "[8]", "result": "inconclusive: 33.2 µM [cytotoxic, single point]"}, {"measurement": "Potency", "setting": "[9]", "result": "inconclusive: 37.1 µM [inhibitor, partial curve, poor fit]"}, {"measurement": "Potency", "setting": "[10]", "result": "inconclusive: 8.31 µM [rising, full curve]"}, {"measurement": "Potency", "setting": "[11]", "result": "active: 3.75 µM"}, {"measurement": "Potency", "setting": "[12]", "result": "inactive"}, {"measurement": "Potency", "setting": "[13]", "result": "active: 27.2 µM"}]}
{"smiles": "CCCCCCC[C@@H](C/C=C/CCC(=O)NCCc1c[nH]c2ccccc12)OC", "values": [{"measurement": "Potency", "setting": "[1]", "result": "inactive"}, {"measurement": "Potency", "setting": "[14]", "result": "inconclusive: 29.8 µM [cytotoxic, single point]"}, {"measurement": "Potency", "setting": "[6]", "result": "inconclusive: 29.8 µM [cytotoxic, single point]"}, {"measurement": "Potency", "setting": "[15]", "result": "inactive"}, {"measurement": "Potency", "setting": "[16]", "result": "inconclusive: 33.2 µM [cytotoxic, single point]"}, {"measurement": "Potency", "setting": "[3]", "result": "inconclusive: 16.6 µM [inhibitor, partial curve]"}, {"measurement": "Potency", "setting": "[10]", "result": "inconclusive: 33.1 µM [rising, single point]"}, {"measurement": "viability signal change, negative = cytotoxic", "setting": "[17]", "result": "inconclusive: 36.8%"}, {"measurement": "Potency", "setting": "[13]", "result": "active: 34.3 µM"}, {"measurement": "Potency", "setting": "[5]", "result": "inconclusive: 36.9 µM [inhibitor, single point]"}]}
